# According to PMC4336329 (PLoS ONE, 2015):
# Out of some 310,000 compounds screened, about 14,000 (4.5%) showed an effect of 50% or more. Effects have a minus sign here. This is one part of the list.
# Biological target: human ether-à-go-go-related gene (hERG) potassium channel (human, UniProt Q12809)
# Experiment: primary screen, population patch clamp on CHO cells stably expressing hERG
# 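Note: peak tail current of the secondary pulse compared with the same well before compound.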
# Sequence of human ether-à-go-go-related gene (hERG) potassium channel (Q12809 whole entry, looked up): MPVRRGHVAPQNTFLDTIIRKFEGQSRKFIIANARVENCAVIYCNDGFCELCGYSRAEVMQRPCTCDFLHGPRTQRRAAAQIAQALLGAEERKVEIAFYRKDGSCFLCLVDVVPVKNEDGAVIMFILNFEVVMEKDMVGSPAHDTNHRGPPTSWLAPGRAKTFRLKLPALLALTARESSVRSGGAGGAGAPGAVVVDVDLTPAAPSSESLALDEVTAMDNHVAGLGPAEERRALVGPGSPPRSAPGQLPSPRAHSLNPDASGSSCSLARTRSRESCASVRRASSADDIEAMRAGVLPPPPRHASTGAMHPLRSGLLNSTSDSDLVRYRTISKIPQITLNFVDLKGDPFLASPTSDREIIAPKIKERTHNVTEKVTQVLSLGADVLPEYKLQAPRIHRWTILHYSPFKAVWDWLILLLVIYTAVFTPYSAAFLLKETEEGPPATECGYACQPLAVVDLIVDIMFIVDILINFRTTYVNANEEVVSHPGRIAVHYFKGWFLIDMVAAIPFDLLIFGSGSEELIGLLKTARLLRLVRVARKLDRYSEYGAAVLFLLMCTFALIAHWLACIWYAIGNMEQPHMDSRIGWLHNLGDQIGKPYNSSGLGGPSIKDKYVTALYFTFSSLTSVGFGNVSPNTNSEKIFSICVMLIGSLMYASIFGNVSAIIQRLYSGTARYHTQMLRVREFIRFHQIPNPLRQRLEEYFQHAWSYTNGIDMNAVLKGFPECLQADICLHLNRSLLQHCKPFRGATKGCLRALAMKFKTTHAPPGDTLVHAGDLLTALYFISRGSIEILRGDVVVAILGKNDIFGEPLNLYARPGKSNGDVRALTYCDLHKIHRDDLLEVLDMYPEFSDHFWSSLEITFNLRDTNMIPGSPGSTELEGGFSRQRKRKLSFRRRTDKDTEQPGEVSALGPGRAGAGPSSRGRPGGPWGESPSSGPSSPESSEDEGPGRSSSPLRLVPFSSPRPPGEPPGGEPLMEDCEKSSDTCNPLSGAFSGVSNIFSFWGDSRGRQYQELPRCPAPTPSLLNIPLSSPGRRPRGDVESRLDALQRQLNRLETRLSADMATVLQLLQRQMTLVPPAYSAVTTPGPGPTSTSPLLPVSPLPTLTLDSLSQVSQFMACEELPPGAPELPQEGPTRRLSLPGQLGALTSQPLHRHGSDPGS
row,SMILES,"hERG current change (%, negative = inhibition) at 10uM"
1,CCc1nc(SCC(=O)Nc2ccc3c(c2)OCCO3)c2oc3ccccc3c2n1,13.6%
2,Cc1cc(NC(=O)CSc2nnc(-c3cccc(Cl)c3)o2)no1,18.5%
3,Cc1nc2ccccc2c(=O)n1NC(=O)c1ccco1,10.1%
4,CC(Cc1ccccc1Sc1ccccc1)N(C)C.O=C(O)/C=C\C(=O)O (stereo not drawn),-69.5%
5,COc1ccc(NC2c3ccccc3C(=O)N2c2cccnc2)cc1Cl (stereo not drawn),-28%
6,Cc1cccc2cc(C#N)c(SCc3nnc(-c4ccccc4[N+](=O)[O-])o3)nc12,-6.72%
7,CCCCNC(=O)CCCCCNS(=O)(=O)c1ccc(OC)cc1,13.8%
8,O=C(CN1CCCCCC1)NC(c1ccccc1)c1ccccc1.O=C(O)C(=O)O,-57.7%
9,Cc1cccc(NC(=O)CSc2nc3ccccc3o2)c1,3.5%
10,C=CCNC(=O)CN(c1ccccc1OCC)S(=O)(=O)c1ccc(C)cc1,-12.5%
11,Cc1csc2c(N3CCN(C(=O)Nc4ccc(OC(F)(F)F)cc4)CC3)ncnc12,-32.9%
12,COC(=O)Cc1cc(=O)[nH]c(/N=C(\N)Nc2cccc(C)c2)n1,13.3%
13,O=C1c2ccccc2C(=O)N1CCCC(=O)N1CCCc2ccccc21,-14%
14,COc1ccc(OC)c(NC(=O)CSc2nnc(CNC(=O)c3cccs3)o2)c1,-4.23%
15,Cc1ccc(C(=O)NCCCN2CCOCC2)o1,30.3%
16,COCc1cc(=O)n2[nH]c(C)cc2n1,16%
17,CC1CCN(S(=O)(=O)c2ccc(NC(=O)Cc3ccc(S(=O)(=O)N4CCOCC4)s3)cc2)CC1,-18.9%
18,COCCn1c(SCc2ccc(OC)c(F)c2)nnc1-c1ccncc1,8.06%
19,C/C(CC(=O)Nc1cccc(F)c1)=N\NC(=O)C(=O)NC1CCCCC1,12.5%
20,NC(=O)c1ccc(SCC(=O)OCC(=O)NCc2ccco2)c([N+](=O)[O-])c1,8.14%
21,Cl.O=C(O)C1CCN(Cc2ccccn2)CC1,16.2%
22,Cc1c(C(=O)c2ccccc2)c2ccccn2c1CCc1ccccn1,-12.3%
23,Cc1cc(NC(=O)COc2coc(CN3CCN(c4ccccc4)CC3)cc2=O)no1,-21.1%

row,SMILES,"hERG current change (%, negative = inhibition) at 10uM"
1,Cc1cc(NCc2ccccc2)n2ncc(-c3ccccc3)c2n1,5.36%
2,Cn1c(Cn2c(=O)sc3ccccc32)nnc1SCC(=O)NC1CCCC1,11.7%
3,CCCCCOC(=O)C1C2C=CC3(CN(c4ccccc4C)C(=O)C13)O2 (stereo not drawn),8.66%
4,CC(=O)c1c(OC(=O)c2ccccc2Br)ccc2c(C)cc(=O)oc12,-3.46%
5,COc1ccccc1N(CC(=O)NCC1CCCO1)C(=O)CCC(=O)Nc1cc(C)on1 (stereo not drawn),13.1%
6,O=C(Nc1cc(C(F)(F)F)ccc1N1CCCCC1)c1ccc(Br)o1,13.7%
7,COc1ccc(C(=O)NC(C)c2nnc(SCC(=O)NC3=NCCS3)n2C)cc1 (stereo not drawn),15.3%
8,COc1ccc(N2C(=O)/C(=C\c3ccco3)N=C2SCC(N)=O)cc1Cl,6.01%
9,Cc1ccc(/C=N\NC(=O)Cn2nnc3ccccc32)o1,-4.11%
10,CC(O)CCc1ccc(O)cc1 (stereo not drawn),11.7%
11,COC(=O)C1=C(C)NC(C)=C(C(=O)OC)C1c1ccc2ccccc2n1,15.8%
12,Nc1nnc(/C=C/c2ccccc2Cl)s1,12.1%
13,COc1ccc(CCNC(=O)c2ccc(OC)c(OC)c2)cc1OC,3.2%
14,COc1ccc(Cc2noc(CN3CCN(Cc4csc(C)n4)CC3)n2)cc1OC,18.2%
15,Cc1ccccc1-c1nnc(-c2ccccc2)o1,-6.58%
16,O=C(CCCN1C(=O)c2cccc3cccc(c23)C1=O)N1CCN(c2ncccn2)CC1,2.04%
17,O=C1N[C@@H](Cc2ccccc2)[C@@H](c2ccco2)O1,14.6%
18,CCn1c(NCc2ccco2)nc2ccccc21,2.38%
19,COc1ccc(C2=NN(C(=O)CCC(=O)O)C(c3ccc(F)cc3)C2)cc1 (stereo not drawn),5.89%
20,COC(=O)C(C(=O)OC)C(CC(=O)c1ccc(C)cc1)c1cc(OC)c(OC)c(OC)c1 (stereo not drawn),5.41%
21,CCN1C(=O)[C@@H]2[C@H](C1=O)[C@@H]1C(=O)Nc3ccccc3C(=O)N1[C@@H]2c1ccc(Br)cc1,-47.3%
22,[Cl-].c1ccc(C[n+]2cccc(-c3ccccc3)c2)cc1,-2.49%
